Data taken from PMC4336329 (PLoS ONE, 2015).
Hit rate of the full screen: of about 310,000 compounds, about 2,200 (0.71%) showed an effect of 50% or more. Effects have a minus sign here. Some of the results follow.

Molecular target: human ether-à-go-go-related gene (hERG) potassium channel (human, UniProt Q12809)
Assay: primary screen, population patch clamp on CHO cells stably expressing hERG

Sequence of human ether-à-go-go-related gene (hERG) potassium channel (Q12809 whole entry, looked up): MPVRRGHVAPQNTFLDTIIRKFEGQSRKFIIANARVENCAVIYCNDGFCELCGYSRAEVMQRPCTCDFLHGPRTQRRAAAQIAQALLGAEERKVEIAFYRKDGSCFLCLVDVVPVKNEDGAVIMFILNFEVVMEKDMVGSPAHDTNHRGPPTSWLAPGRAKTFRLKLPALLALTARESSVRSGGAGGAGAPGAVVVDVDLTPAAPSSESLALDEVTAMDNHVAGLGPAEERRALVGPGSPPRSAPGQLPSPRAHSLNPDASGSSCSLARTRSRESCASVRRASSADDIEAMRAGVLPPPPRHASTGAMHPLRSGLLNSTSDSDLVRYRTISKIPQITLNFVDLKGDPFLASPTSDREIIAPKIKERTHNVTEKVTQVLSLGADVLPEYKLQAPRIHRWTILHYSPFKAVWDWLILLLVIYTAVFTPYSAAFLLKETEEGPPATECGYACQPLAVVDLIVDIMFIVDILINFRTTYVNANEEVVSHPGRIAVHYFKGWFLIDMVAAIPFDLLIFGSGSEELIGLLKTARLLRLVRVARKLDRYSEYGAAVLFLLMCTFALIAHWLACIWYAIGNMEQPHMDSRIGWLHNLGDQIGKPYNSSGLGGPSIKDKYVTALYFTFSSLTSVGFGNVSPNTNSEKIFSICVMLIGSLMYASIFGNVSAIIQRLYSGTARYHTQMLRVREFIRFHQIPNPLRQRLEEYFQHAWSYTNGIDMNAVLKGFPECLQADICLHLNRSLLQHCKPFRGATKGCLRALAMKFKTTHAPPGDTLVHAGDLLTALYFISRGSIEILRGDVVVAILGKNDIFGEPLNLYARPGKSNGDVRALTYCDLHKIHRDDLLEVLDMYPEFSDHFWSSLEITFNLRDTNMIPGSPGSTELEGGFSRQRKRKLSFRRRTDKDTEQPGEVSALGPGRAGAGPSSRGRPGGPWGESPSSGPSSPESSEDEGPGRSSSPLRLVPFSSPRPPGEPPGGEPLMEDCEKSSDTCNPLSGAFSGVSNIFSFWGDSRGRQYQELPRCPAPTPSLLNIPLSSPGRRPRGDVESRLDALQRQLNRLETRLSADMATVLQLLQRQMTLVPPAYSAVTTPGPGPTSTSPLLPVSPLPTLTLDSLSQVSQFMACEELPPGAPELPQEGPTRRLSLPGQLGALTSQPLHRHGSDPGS

SMILES	hERG current change (%, negative = inhibition) at 1uM
CS(=O)(=O)NN1C(=O)c2ccccc2NC1c1ccccc1F (stereo not drawn)	10.8%
CCc1ccccc1NC(=O)CSc1nnc(Cn2nnc3ccccc32)n1C	10.5%
CCCNC(=O)c1ccccc1SCc1c(C)noc1C	17.6%
c1ccc(-c2cccc(-c3ccccc3)n2)cc1	8.47%
O=C(CN(c1ccc(F)cc1)S(=O)(=O)c1ccccc1)Nc1ccccc1C(=O)O	7.73%
CCOC(=O)c1c(NC(=O)C(C)OC(=O)c2ccc(NC(=O)CC#N)cc2)sc2c1CCCC2 (stereo not drawn)	16.1%
COC(=O)c1cccc(-n2nnnc2SCC(=O)Nc2nc3c(s2)CCCC3)c1	13.4%
CCOc1ccc(CN2CCNC(=O)C2CC(=O)O)cc1 (stereo not drawn)	8.45%
C=CCN(CC=C)CC(O)CN(c1cc([N+](=O)[O-])ccc1OC)S(=O)(=O)c1ccccc1 (stereo not drawn)	8.5%
CCN(N=Nc1nonc1OC)c1nonc1OC	12.1%
COc1ccc(N2Cc3ccccc3C2=NC(=O)c2cncc(Br)c2)cc1	18.1%
O=C(CSc1ccc2ccccc2n1)c1ccccc1	15.7%
CCc1ccc(NC(=O)C2CCCN(S(=O)(=O)c3ccc4c(c3)CC(C)N4C(C)=O)C2)cc1 (stereo not drawn)	2.67%
O=C(c1ccco1)N1CCN(C(=S)Nc2ccc(F)c(Cl)c2)CC1	8.33%
COC(=O)N/N=C/c1ccc([N+](=O)[O-])s1	19.7%
CC(=O)N(c1ccccc1)C1SC(=O)N(c2ccccc2)C1=O (stereo not drawn)	10.1%
Cc1cc(C)c2cc(CN(CCO)Cc3nnnn3Cc3ccccc3)c(=O)[nH]c2c1	0.542%
S=c1[nH]c(-c2ccccc2)cn1/N=C/c1ccc(Br)cc1	9.71%
O=C(/C=C/c1ccc([N+](=O)[O-])o1)NNC(=O)c1ccc(F)cc1	10.8%
CCOC(=O)C1CCN(c2c(NCc3ccc(C(=O)NC4CCCC4)cc3)c(=O)c2=O)CC1	-7.92%
Cc1ccc2c(Cl)c(C(=O)N/N=C/c3cccn3C)sc2c1	10.6%
O=C(O)CN(C1CCCCC1)S(=O)(=O)c1ccc(F)cc1	12.7%
O=C(c1cccc(OC2CCN(C3CCCC3)CC2)c1)N1CCCCCCC1	-11.5%

SMILES	hERG current change (%, negative = inhibition) at 1uM
C[C@]12CCC3C(CC[C@H]4CC(O)CC[C@]34C)C1CC/C2=N/NC(=O)c1ccncc1 (stereo partly drawn)	11.9%
COC(=O)c1ccc(C)c(NC(=O)C2CC(=O)N(C3CCCC(C)C3C)C2)c1 (stereo not drawn)	10.9%
CC1CCc2ccccc2N1C(N)=Nc1ccccc1.Cl (stereo not drawn)	12.5%
CC(O)CC(C(=O)NNc1ccccc1)C(=O)NNc1ccccc1 (stereo not drawn)	20.8%
COc1cccc(NC(=O)COC(=O)c2cc(S(=O)(=O)N3CCOCC3)ccc2C)c1	7.5%
CCOc1ccc(NS(=O)(=O)c2ccc3c(c2)n(C)c(=O)n3C)cc1	6.36%
O=c1ccc(-c2nc3ccccc3n2Cc2ccccc2Cl)c[nH]1	4.18%
Cc1ccc(S(=O)(=O)N2CCN(C(=O)c3sccc3-c3ccccc3)CC2)cc1	-7.9%
CN(C)c1ccc(C2CNC(c3ccc(Cl)c([N+](=O)[O-])c3)c3[nH]c4ccccc4c32)cc1.Cl (stereo not drawn)	1.29%
Cc1c(C)n2c(SCC(=O)N3CCCC3)nnc2[nH]c1=O	7.9%
NC(=O)C1(C(N)=O)OC1c1ccc(Cl)c(Cl)c1 (stereo not drawn)	9.83%
CCc1ccc(C2=NN(CCC(=O)N3CCC4(CC3)OCCO4)C(=O)CC2)cc1	-8.64%
N/C(=N\OC(=O)C1CCCCC1)c1ccc(Cl)cc1	16%
O=C(Nc1nccs1)C1CCCN1S(=O)(=O)c1ccc(F)cc1 (stereo not drawn)	3.86%
O=C(CCOc1ccccc1)NCC(c1ccco1)N1CCCCC1 (stereo not drawn)	7.67%
CN(Cc1ccc(Br)cc1)CC(O)COc1cccc(Br)c1 (stereo not drawn)	9.41%
N#Cc1nc(-c2ccccc2F)oc1N1CCN(C(=O)c2ccco2)CC1	-6.17%
NC(=O)c1sc2nc(-c3ccccc3)ccc2c1N	16%
CCOC(=O)N1CCN(S(=O)(=O)c2ccc(Cl)cc2)CC1	9.52%
O=C(CSc1nc(C2CC2)nc2ccccc12)Nc1ccccc1N1CCOCC1	15.9%
O=C(O)C1CCCN1C(=O)Oc1ccccc1 (stereo not drawn)	-0.952%
N[C@@H]1CONC1=O	18.7%
